This is one part of the list. At the low end of the ranking the order means little.
Target: GST-SBP-SLBP (stem-loop binding protein) (UniProt Q14493)
Experiment: targeted RNA Bind-n-Seq;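 note: DESeq read counts versus GST-SBP nonspecific binding control pulldown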
Conditions: RBNS binding buffer: 25 mM Tris pH 7.5, 150 mM KCl, 3 mM MgCl2, 0.1% Tween, 0.5 mg/mL BSA, 1 mM DTT; 27 nM protein, 750 pM RNA pool; temperature not stated; high values mean tight binding

| Sequence | binding signal (log2 fold change) |
| --- | --- |
| GGUCACGUCUCAAUCAACUCUAUAGAGGGGGGGAAAACCCCUUUACCCUCAUUUUCAACAGCUCGCAGUCAAG | -0.08 |
| GGUCACGUCUCAAUCAACUCAUCCUCAGGAGUUUGCUCCUGUAAAUUCAACAGCUCGCAGUCAAG | 0.11 |
| GGUCACGUCUCAAUCAACUCUUUCUCCAGGGAAAACCCUGGCUUUUUCAACAGCUCGCAGUCAAG | -0.0594 |
| GGUCACGUCUCAAUCAACUCUUUCUCCAGGGAAAUCCCUGGCUAACUCAACAGCUCGCAGUCAAG | 0.041 |
| GGUCACGUCUCAAUCAACUCAUUUCCCAGGGAAAGCCCUGGCUAUCUCAACAGCUCGCAGUCAAG | 0.0624 |
| GGUCACGUCUCAAUCAACUCAUUCUCCAGGGAAAUCCCUGGCUAUCUCAACAGCUCGCAGUCAAG | 0.0128 |
| GGUCACGUCUCAAUCAACUCAUUCCCCAGGGAAAACCCUGGUUAUUUCAACAGCUCGCAGUCAAG | -0.00122 |
| GGUCACGUCUCAAUCAACUCAGUCUCAGGAGUUUACUCCUGUAUUUUCAACAGCUCGCAGUCAAG | -0.099 |
| GGUCACGUCUCAAUCAACUCAAUCUCAGGAGUUUGCUCCUGCAAUCUCAACAGCUCGCAGUCAAG | -0.0263 |
| GGUCACGUCUCAAUCAACUCUUUCUCCAGGGAAAACCCUGGCUAAUUCAACAGCUCGCAGUCAAG | 0.0251 |
| GGUCACGUCUCAAUCAACUCUACUUCCAGGGAAAGCCCUGGUAUUCUCAACAGCUCGCAGUCAAG | -0.225 |
| GGUCACGUCUCAAUCAACUCAAUCCCCAGGGAAAUCCCUGGCAAAUUCAACAGCUCGCAGUCAAG | -0.111 |
| GGUCACGUCUCAAUCAACUCCUUCGAGGGGGGGAAAACCCCUUUACCCUCUAUCUCAACAGCUCGCAGUCAAG | -0.208 |
| GGUCACGUCUCAAUCAACUCAUUUUCAGGAGUUUACUCCUGCAAUCUCAACAGCUCGCAGUCAAG | 0.102 |
| GGUCACGUCUCAAUCAACUCAUCCCCAGGAGUUUCCUCCUGUAUAUUCAACAGCUCGCAGUCAAG | 0.226 |
| GGUCACGUCUCAAUCAACUCACAAGAGGGGGGGAAAACCCCUUUACCCUCAUCGUCAACAGCUCGCAGUCAAG | -0.251 |
| GGUCACGUCUCAAUCAACUCCCCAGAGGGGGGGAAAACCCCUUUACCCUCGUCAUCAACAGCUCGCAGUCAAG | -0.486 |
| GGUCACGUCUCAAUCAACUCUUUCUCCAGGGAAAGCCCUGGUUUUCUCAACAGCUCGCAGUCAAG | 0.042 |
| GGUCACGUCUCAAUCAACUCUUCGUCCAGGGAAACCCCUGGCUAAUUCAACAGCUCGCAGUCAAG | -0.0179 |
| GGUCACGUCUCAAUCAACUCAUUAGAGGGGGGGAAAACCCCUUUGCCCUCAUUCUCAACAGCUCGCAGUCAAG | 0.167 |
| GGUCACGUCUCAAUCAACUCUUUUCCCAGGGAAACCCCUGGUUUAUUCAACAGCUCGCAGUCAAG | 0.0755 |
| GGUCACGUCUCAAUCAACUCUAUCUCCAGGGAAAUCCCUGGCAUUUUCAACAGCUCGCAGUCAAG | -0.075 |
| GGUCACGUCUCAAUCAACUCUACUCCCAGGGAAACCCCUGGCAUAUUCAACAGCUCGCAGUCAAG | -0.0245 |
| GGUCACGUCUCAAUCAACUCUAUUUCAGGAGUUUUCUCCUGCUAUCUCAACAGCUCGCAGUCAAG | -0.0208 |

| Sequence | binding signal (log2 fold change) |
| --- | --- |
| GGUCACGUCUCAAUCAACUCAUCUCCAGGAGUUUCCUCCUGCAAUCUCAACAGCUCGCAGUCAAG | 0.0805 |
| GGUCACGUCUCAAUCAACUCCCACGAGGGGGGGAAAACCCCUUUACCCUCACACUCAACAGCUCGCAGUCAAG | 0.366 |
| GGUCACGUCUCAAUCAACUCUAUCCCCAGGGAAAUCCCUGGCUUACUCAACAGCUCGCAGUCAAG | -0.0776 |
| GGUCACGUCUCAAUCAACUCCCACGAGGGGGGGAAAACCCCUUUACCCUCAACAUCAACAGCUCGCAGUCAAG | 0.0694 |
| GGUCACGUCUCAAUCAACUCAAUUCCAGGAGUUUCCUCCUGUAUAUUCAACAGCUCGCAGUCAAG | 0.0916 |
| GGUCACGUCUCAAUCAACUCAAUUUCAGGAGUUUCCUCCUGUUUACUCAACAGCUCGCAGUCAAG | 0.109 |
| GGUCACGUCUCAAUCAACUCAUUUUCCAGGGAAAGCCCUGGCUAUUUCAACAGCUCGCAGUCAAG | -0.187 |
| GGUCACGUCUCAAUCAACUCUAUUCCCAGGGAAAUCCCUGGUUUUCUCAACAGCUCGCAGUCAAG | -0.18 |
| GGUCACGUCUCAAUCAACUCUUUUCCCAGGGAAAGCCCUGGCUUUCUCAACAGCUCGCAGUCAAG | 0.234 |
| GGUCACGUCUCAAUCAACUCUUUUCCCAGGGAAACCCCUGGCUAUGUCAACAGCUCGCAGUCAAG | -0.031 |
| GGUCACGUCUCAAUCAACUCAUUCUCAGGAGUUUACUCCUGCUUAGUCAACAGCUCGCAGUCAAG | 0.121 |
| GGUCACGUCUCAAUCAACUCAUCCCCAGGAGUUUUCUCCUGCUAUCUCAACAGCUCGCAGUCAAG | 0.0245 |
| GGUCACGUCUCAAUCAACUCUUCUCCAGGAGUUUCCUCCUGUAAAUUCAACAGCUCGCAGUCAAG | 0.222 |
| GGUCACGUCUCAAUCAACUCACUAGAGGGGGGGAAAACCCCUUUACCCUCAUCUUCAACAGCUCGCAGUCAAG | 0.00853 |
| GGUCACGUCUCAAUCAACUCACACGAGGGGGGGAAAACCCCUUUACCCUCACAAUCAACAGCUCGCAGUCAAG | 0.0588 |
| GGUCACGUCUCAAUCAACUCUUUCUCCAGGGAAAACCCUGGCAAUUUCAACAGCUCGCAGUCAAG | 0.0627 |
| GGUCACGUCUCAAUCAACUCAUCUUCCAGGGAAAGCCCUGGCAUAUUCAACAGCUCGCAGUCAAG | 0.0473 |
| GGUCACGUCUCAAUCAACUCAUCUCCCAGGGAAAUCCCUGGCUUUCUCAACAGCUCGCAGUCAAG | 0.164 |
| GGUCACGUCUCAAUCAACUCUAUCCCCAGGGAAACCCCUGGUAUUCUCAACAGCUCGCAGUCAAG | -0.241 |
| GGUCACGUCUCAAUCAACUCAUUUCCAGGAGUUUUCUCCUGCAUAUUCAACAGCUCGCAGUCAAG | 0.0114 |
| GGUCACGUCUCAAUCAACUCAUCGCCAGGAGUUUUCUCCUGUAUAUUCAACAGCUCGCAGUCAAG | 0.0921 |
| GGUCACGUCUCAAUCAACUCAUUCCCAGGAGUUUACUCCUGCAUACUCAACAGCUCGCAGUCAAG | 0.139 |
| GGUCACGUCUCAAUCAACUCUUUUUCAGGAGUUUACUCCUGCUAAUUCAACAGCUCGCAGUCAAG | 0.184 |
